Results are given in words; binding and its absence hold for the method and conditions named. Binding seen in cells or lysates may run through a third protein. Some entries that bind do so weakly or less than the wild type. For part of these data: Sequences can lack the tags named with a protein.

Protein sequences, listed by entry. Tags and fused reporters are not part of them.
UniProt P10275: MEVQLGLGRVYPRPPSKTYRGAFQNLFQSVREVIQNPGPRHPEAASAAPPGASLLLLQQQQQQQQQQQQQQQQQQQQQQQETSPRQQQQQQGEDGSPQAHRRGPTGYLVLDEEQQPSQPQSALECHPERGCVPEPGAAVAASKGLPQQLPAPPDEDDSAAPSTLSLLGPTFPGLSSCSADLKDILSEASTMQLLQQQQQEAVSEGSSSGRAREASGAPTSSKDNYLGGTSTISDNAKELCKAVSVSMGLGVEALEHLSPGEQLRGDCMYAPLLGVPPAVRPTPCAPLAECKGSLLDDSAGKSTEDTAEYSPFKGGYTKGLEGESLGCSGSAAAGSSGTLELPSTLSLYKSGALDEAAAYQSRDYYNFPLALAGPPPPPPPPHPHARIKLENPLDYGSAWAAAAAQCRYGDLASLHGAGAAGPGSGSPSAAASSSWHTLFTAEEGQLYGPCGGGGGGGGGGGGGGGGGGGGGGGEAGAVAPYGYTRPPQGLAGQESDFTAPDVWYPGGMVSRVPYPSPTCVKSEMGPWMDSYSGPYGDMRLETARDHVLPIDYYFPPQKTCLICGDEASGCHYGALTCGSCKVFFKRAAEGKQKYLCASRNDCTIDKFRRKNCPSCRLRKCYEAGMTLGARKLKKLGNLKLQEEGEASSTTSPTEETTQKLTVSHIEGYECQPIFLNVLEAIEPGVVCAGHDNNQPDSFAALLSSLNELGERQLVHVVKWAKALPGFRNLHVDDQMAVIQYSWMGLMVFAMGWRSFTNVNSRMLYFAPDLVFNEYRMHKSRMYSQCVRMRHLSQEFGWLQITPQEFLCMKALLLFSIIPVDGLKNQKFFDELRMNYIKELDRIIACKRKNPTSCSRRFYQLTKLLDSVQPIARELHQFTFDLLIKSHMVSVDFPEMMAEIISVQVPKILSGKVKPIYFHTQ

The results in this text go back to paper PMC5167418, “A Novel Functional Domain of Tab2 Involved in the Interaction with Estrogen Receptor Alpha in Breast Cancer Cells” (PLoS ONE, 2016).

The target in assay [1] is T1, MBP-1-350Tab2 (human) (UniProt Q9NYJ8).
T1 sequence: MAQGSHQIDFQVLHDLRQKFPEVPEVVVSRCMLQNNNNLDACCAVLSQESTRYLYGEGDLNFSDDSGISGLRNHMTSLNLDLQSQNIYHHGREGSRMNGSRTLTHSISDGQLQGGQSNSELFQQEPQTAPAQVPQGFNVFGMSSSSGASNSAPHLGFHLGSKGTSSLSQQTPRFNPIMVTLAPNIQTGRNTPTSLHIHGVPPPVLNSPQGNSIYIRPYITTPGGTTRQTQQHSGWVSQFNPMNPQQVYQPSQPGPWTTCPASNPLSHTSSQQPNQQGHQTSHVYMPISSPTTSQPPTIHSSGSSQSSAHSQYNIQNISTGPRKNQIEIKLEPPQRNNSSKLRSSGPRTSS
In words: pull-down; 10 μg MBP-Tab2 fusion incubated with ERα-overexpressing HEK293T cell lysate 1.5 h at 4°C in pull-down buffer (125 mM NaCl, 20 mM Tris/HCl pH 7.8, 10% glycerol, 0.1% NP-40, 0.5 mM DTT), amylose resin, immunoblot; only the target purified.

The target of assay [2] is T2, MBP-Tab2 full-length (human) (UniProt Q9NYJ8).
T2 sequence: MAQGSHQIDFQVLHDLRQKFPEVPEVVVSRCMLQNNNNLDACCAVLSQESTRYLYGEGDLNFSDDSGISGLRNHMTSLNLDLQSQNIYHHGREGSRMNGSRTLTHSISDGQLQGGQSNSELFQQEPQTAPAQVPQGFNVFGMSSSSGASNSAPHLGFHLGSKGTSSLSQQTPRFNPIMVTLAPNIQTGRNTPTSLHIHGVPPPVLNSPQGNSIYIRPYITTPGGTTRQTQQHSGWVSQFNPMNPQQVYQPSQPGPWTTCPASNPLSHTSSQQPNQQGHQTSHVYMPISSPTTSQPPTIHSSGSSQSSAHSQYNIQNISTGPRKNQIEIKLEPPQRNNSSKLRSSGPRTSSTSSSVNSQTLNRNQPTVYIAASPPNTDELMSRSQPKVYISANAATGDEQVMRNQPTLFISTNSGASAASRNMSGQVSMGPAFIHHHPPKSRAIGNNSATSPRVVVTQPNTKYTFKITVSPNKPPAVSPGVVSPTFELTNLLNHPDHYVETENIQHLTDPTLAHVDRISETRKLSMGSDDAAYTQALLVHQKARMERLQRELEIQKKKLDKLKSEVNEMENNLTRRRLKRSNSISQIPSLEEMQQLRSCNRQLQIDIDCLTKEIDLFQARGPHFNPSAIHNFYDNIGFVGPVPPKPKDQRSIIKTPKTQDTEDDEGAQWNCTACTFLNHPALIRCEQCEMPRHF
The assay is described as above.

The target in assay [3] is T3, MBP-Tab2(406–531) (human) (UniProt Q9NYJ8).
T3 sequence: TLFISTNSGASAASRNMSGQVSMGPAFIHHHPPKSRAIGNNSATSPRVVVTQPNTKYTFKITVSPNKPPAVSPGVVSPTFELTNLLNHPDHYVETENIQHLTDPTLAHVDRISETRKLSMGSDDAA
The description is as above.

The target of assay [4] is T2, MBP-Tab2 full-length (human). Description: pull-down; competition: 10 μg MBP-Tab2 fusion preincubated 1 h at 4°C with 5 μl in vitro translated Tab2(406–531), then ERα-overexpressing HEK293T cell lysate 1.5 h at 4°C, amylose resin, immunoblot; the pair that is blocked; only the target purified.
For assay [5], the target named is T3, MBP-Tab2(406–531) (human). The description is as above.
Assay [6] deals with T4, T7-tagged Tab2(406–531) (human) (UniProt Q9NYJ8).
T4 sequence: T3 sequence
In words: co-IP; HEK293T cells transiently co-transfected; total lysates in RIPA buffer; 15 μg anti-NFkB-p65 or anti-epitope T7 antibody overnight at 4°C, protein A sepharose; immunoblot with anti-ERα, anti-Flag and anti-T7.

For assay [7], the target named is ERα (overexpressed in HEK293T cells) (human) (UniProt P03372). Description: pull-down; competition: 5 μl in vitro translated Tab2(406–531) as competitor of MBP-Tab2 fusions for ERα of HEK293T cell lysate, amylose resin, immunoblot.
For assay [8], the target named is GST-ERα (1–45) (human) (UniProt P03372). In words: pull-down; 10 μg GST-ERα (1–45) or GST alone incubated with 5 μl in vitro translated Tab2(406–531) 2 h at 4°C in pull-down buffer, glutathione resin, immunoblot; only the target purified.
Assay [9] addresses p65-tagged ERα(1–60) (human) (UniProt P03372). In words: co-IP; HEK293T cells transiently co-transfected; total lysates in RIPA buffer; 15 μg anti-NFkB-p65 or anti-epitope T7 antibody overnight at 4°C, protein A sepharose; immunoblot with anti-ERα, anti-Flag and anti-T7.
Assay [10] has as its target T5, Recombinant human ERα (human, UniProt P03372 1-595).
T5 construct: recombinant human ERα, bought; also called recombinant hERα; source: bought: Life Technologies
T5 sequence (looked up): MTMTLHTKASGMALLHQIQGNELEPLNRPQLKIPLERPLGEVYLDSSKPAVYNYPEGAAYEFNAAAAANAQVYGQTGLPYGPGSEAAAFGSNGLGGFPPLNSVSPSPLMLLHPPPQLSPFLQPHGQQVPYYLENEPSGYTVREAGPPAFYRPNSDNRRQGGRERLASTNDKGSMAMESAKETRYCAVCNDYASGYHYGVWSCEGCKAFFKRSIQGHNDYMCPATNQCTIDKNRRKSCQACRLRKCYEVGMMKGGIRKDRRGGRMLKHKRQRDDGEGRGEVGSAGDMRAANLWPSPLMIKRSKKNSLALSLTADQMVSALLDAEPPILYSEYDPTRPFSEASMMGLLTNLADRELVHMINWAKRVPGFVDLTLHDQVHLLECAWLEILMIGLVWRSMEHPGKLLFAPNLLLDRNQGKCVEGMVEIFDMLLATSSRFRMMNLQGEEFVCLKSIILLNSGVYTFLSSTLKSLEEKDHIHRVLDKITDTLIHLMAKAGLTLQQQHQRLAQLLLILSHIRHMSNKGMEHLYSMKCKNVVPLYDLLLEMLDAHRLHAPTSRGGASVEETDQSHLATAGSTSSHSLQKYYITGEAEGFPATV
Description: pull-down; competition screening: in vitro translated fragments of Tab2(406–531) as competitors of MBP-Tab2(406–531) for recombinant hERα (1 nM); only the target purified.

Turning to “ERα (overexpressed in HEK293T cells) (from UniProt P03372 1-595)”, the binding entry is “no binding” in [1]; “binds” in assay [2]; “binds” in assay [3]; “binds” in assay [4]; “binds” in assay [5].

As for “Flag-tagged full-length AR (from UniProt P10275 1-920)”, the binding result in assay [6] is given as “binds”. For “Flag-tagged full-length ERα (from UniProt P03372 1-595)”, the binding entry in assay [6] was “binds”.

As to “p65-tagged ERα(1–60) (from UniProt P03372 1-60) (domain or fragment)”, the binding result in assay [6] is “binds”.

B1: in vitro transcribed and translated Tab2(406–531) (domain or fragment, UniProt Q9NYJ8 406-531)
chain: T3 sequence
B1: the binding result in assay [7] and in assay [8] was “binds” throughout.

B2: T7-tagged Tab2(406–531) (domain or fragment, UniProt Q9NYJ8 406-531)
chain: T3 sequence
For the molecule B2, the binding entry in [9] is “binds”.

With NKPPAVSPGVVSPTFELTNLLNHPDHYVETENIQ (domain or fragment, UniProt Q9NYJ8 471-504) [Fragment 4 of Tab2(406–531)], the binding result in [10] is recorded as “binds”.
